# Measured values as given in PubChem BioAssay AID463173 (ICCB-Longwood Screening Facility, Harvard Medical School, 2010).
# The whole screen tested about 52,000 compounds, of which about 4,300 (8.3%) were called active. No stated cut-off is given here; in the data, active means survival mostly below about 52% (no sharp cut-off); inactive means mostly above about 56%. Some of the results follow.
# Tested on: DeltatarO mutant
# Test: S. aureus survival, RN4220 and DeltatarO strains – OD600, teichoic acid synthesis inhibitors, primary screen (AID 463173)
# Details: S. aureus RN4220 wild type/DeltatarO growth, OD600, 18 h, active compounds read low, screened at 18.75 µg/mL (by protocol)
row,SMILES,survival
1,Cc1ccc(CNC(=O)c2ccc(Nc3nc4ccccc4n4nnnc34)cc2)cc1,inactive: 124%
2,Cc1ccc(NC(=O)c2oc3c(c2C)-c2[nH]ncc2CC3)c(Cl)c1,inactive: 64%
3,COc1cc(NC(=O)C2CCCCC2)c(OC)cc1NC(=O)CCC(=O)NCc1ccco1,inactive: 98%
4,CCc1ccc(NC(=O)COC(=O)CCCC2=NS(=O)(=O)c3ccccc3N2)cc1,inactive: 109%
5,O=C1CSC2(C(=O)N(Cc3ccccc3)c3ccccc32)N1c1cccc(F)c1 (stereo not drawn),inactive: 77%
6,COc1cc(-c2nc(-c3ccc4c(c3)[nH]c(=O)n4C)no2)cc(OC)c1OC,inactive: 94%
7,CCOc1ccccc1NC(=O)C1CCN(S(=O)(=O)c2ccc3[nH]c(=O)ccc3c2)CC1,inactive: 63%
8,COc1ccc(-n2c(/C=C/c3cccc(C(F)(F)F)c3)nc3ccccc3c2=O)cc1Cl,inactive: 90%
9,CCOc1ccc(CCNC(=O)C2CCN(Cc3nc(-c4ccc(OC)c(OC)c4)oc3C)CC2)cc1OCC,inactive: 89%
10,Cc1ccc(S(=O)(=O)N2CCN(Cc3cc(Br)ccc3O)CC2)cc1,inactive: 59%
11,Cc1ccn2c(=O)cc(COc3ccc(NC(=O)COc4ccccc4)cc3)nc2c1,inactive: 96%
12,Cn1cc(S(=O)(=O)N2CCCCCC2)cc1C(=O)N1CCN(c2cccc(C(F)(F)F)c2)CC1,inactive: 99%
13,COc1ccc(C2SCCN2S(=O)(=O)c2ccc(NC(C)=O)cc2)cc1OC (stereo not drawn),inactive: 84%
14,CCC(=O)N1CCc2cc(Br)cc(S(=O)(=O)N3CCCC(C(=O)NCc4ccc(F)cc4)C3)c21 (stereo not drawn),inactive: 95%
15,Cc1cccc(-c2noc(-c3ccc(NCc4ccco4)c([N+](=O)[O-])c3)n2)c1,inactive: 59%
16,O=C(c1ccco1)N1CCN(c2nc3c(F)cc(F)cc3s2)CC1,inactive: 109%
17,CCC(C)(C)C(=O)Nc1ccc(Cl)cc1,inactive: 93%
18,CCC(=O)N1c2ccccc2CC1C(=O)NCc1cccc(OC)c1OC (stereo not drawn),inactive: 84%
19,Cc1ccc2nc(COc3ccccc3NC(=O)c3ccccc3C)cc(=O)n2c1,inactive: 81%
20,COc1ccc(-c2nnc(SCC(=O)Nc3cc(OC)ccc3OC)nc2-c2ccc(OC)cc2)cc1,inactive: 80%
21,CCOC(=O)CS(=O)(=O)c1nc2c(c(C(F)(F)F)n1)CCc1ccccc1-2,inactive: 98%
22,CCc1cccc(C)c1NC(=O)Cn1c(=O)n(-c2ccc(C)cc2)c(=O)c2c1cnn2C,inactive: 74%

row,SMILES,survival
1,COc1ccc(CCn2c(=O)c3cccnc3n(CC(=O)Nc3c(C)cccc3C)c2=O)cc1OC,inactive: 90%
2,O=S(=O)(c1ccc(Cl)cc1)c1nc(-c2cccc(Br)c2)oc1NCc1ccccc1,inactive: 81%
3,COc1ccc(OC)c(NC(=O)c2ccc3c(SCC(=O)O)c4c(nc3c2)CCCC4)c1,inactive: 64%
4,Cc1cccc(CCNC(=O)c2ccc3c(c2)nc2n3CCC(C)C2)c1 (stereo not drawn),inactive: 92%
5,Cc1ccccc1CNC(=O)c1nn(-c2ccccc2F)nc1CO,inactive: 85%
6,COc1ccc(C(=O)Nc2ccc(-c3nnc4n3CCCCC4)cc2)cc1,active: 0%
7,COc1cccc2c1Oc1ncccc1N(C(=O)CCC(=O)NCCC(C)C)C2,inactive: 80%
8,O=c1c2sccc2n(Cc2cc(=O)n3ccccc3n2)c(=O)n1-c1cc(F)ccc1F,inactive: 69%
9,COc1cc(OC)cc(C(=O)Nc2cc(-c3nc4ccccc4[nH]3)ccc2C)c1,active: 44%
10,O=C(/C=C/c1ccco1)Nc1ccc(F)cc1,inactive: 94%
11,COC(=O)c1c(SC)nc2ccccc2c1OCc1ccc(Br)cc1,inactive: 59%
12,CCOC(=O)C1CCCN(c2nc3c(S(=O)(=O)c4ccc(Br)cc4)nnn3c3ccsc23)C1 (stereo not drawn),inactive: 94%
13,CCOc1ccc2nc(N3CCN(C(=O)c4ccc(S(=O)(=O)CC)cc4)CC3)sc2c1,inactive: 95%
14,COc1ccc(-n2cc(C(=O)N(CCN(C)C)Cc3ccccc3)c3ccccc3c2=O)cc1,inactive: 75%
15,Cc1ccc(/C=C/C(=O)Nc2nc(-c3cccs3)ns2)cc1,inactive: 77%
16,COc1cc(C(=O)N(Cc2ccc(F)cc2)Cc2ccco2)cc(OC)c1OC,inactive: 103%
17,COc1ccc(Cn2c(=O)[nH]c3cc(C(=O)NCCC(C)C)ccc3c2=O)cc1,inactive: 73%
18,COc1ccc(CNC(=O)CS(=O)Cc2nc(-c3ccc(OC)c(OC)c3)oc2C)cc1 (stereo not drawn),inactive: 86%
19,CCn1c(C)c(C)c2cc(C(=O)NCCCN3CCCCC3C)ccc21 (stereo not drawn),inactive: 91%
20,Cc1ccc(N(CC(=O)Nc2cccc(Cl)c2C)S(=O)(=O)c2c(C)noc2C)cc1,inactive: 54%
21,Cc1cc(C)c(NC(=O)CSc2nc3ccccc3c3nc(CCn4cncc4C)nn23)c(C)c1,inactive: 90%
22,O=S(=O)(c1ccc(Cl)cc1)c1nc(-c2ccccc2Br)oc1NCc1ccccc1,inactive: 83%

row,SMILES,survival
1,CCN(CC)CCCNc1cc(-c2ccccc2)nc(C)n1,inactive: 65%
2,Cc1ccc(C)c(OCCn2c(C3CC(=O)N(Cc4ccc(F)cc4)C3)nc3ccccc32)c1 (stereo not drawn),active: 0%
3,CCN1CCN(C(=O)c2ccc3c(c2)N(Cc2cccc(Cl)c2)C(=O)c2ccccc2S3=O)CC1 (stereo not drawn),inactive: 92%
4,CCC(C(=O)Nc1ccc(C(C)=O)cc1)n1cnc2nc3c(cc2c1=O)CCCC3 (stereo not drawn),inactive: 91%
5,CCOc1ccccc1NS(=O)(=O)c1ccc2c(c1)CC(C)N2C(=O)C1CC1 (stereo not drawn),inactive: 73%
6,COc1cc(C(CC(=O)NCc2ccccc2)N2Cc3ccccc3C2=O)cc(OC)c1OC (stereo not drawn),inactive: 135%
7,S=C1NCN(CCCn2ccnc2)CN1,inactive: 57%
8,CCc1c(C)nc2nncn2c1Nc1ccc(Cl)cc1,inactive: 91%
9,COc1ccc(-n2c(=O)c3c4c(sc3n(Cc3ccc(C)cc3C)c2=O)CCC4)c(OC)c1,inactive: 66%
10,CCc1nc2ccccc2n2c(-c3ccccc3)c3c(=O)n(C)c(=O)n(C)c3c12,inactive: 75%
11,COc1ccc2c(C)c(CCC(=O)NCc3ccc(C)cc3)c(=O)oc2c1,inactive: 82%
12,CCSc1ccc(C(=O)Nc2ccc(-c3nc4ccc(C)cc4s3)cc2)cc1,inactive: 112%
13,COC(=O)c1c(SC)nc2ccccc2c1OCc1ccccc1Cl,inactive: 115%
14,CCOc1ccc(NC(=O)C2CCN(c3nc4ccccc4[nH]3)CC2)cc1,inactive: 99%
15,COC(=O)C1=C(C)N=C2SCCC(=O)N2C1c1ccc(OCc2ccccc2)c(OC)c1 (stereo not drawn),inactive: 57%
16,CCOC(=O)c1c(C)[nH]c(C)c1S(=O)(=O)N(C)CC(=O)N1CCN(c2ccc(Cl)cc2)CC1,inactive: 88%
17,CCOc1ccc(CN2CCc3nc(N4CCN(c5ncccn5)CC4)ncc3C2)cc1OC,inactive: 95%
18,Cc1ccc(-c2c(C(=O)N3CCN(c4cccc(C)c4)C(C)C3)oc(=O)c3ccccc23)cc1 (stereo not drawn),inactive: 89%
19,CCC(CC)C(=O)OCc1cc(=O)n2nc(C3CCCCC3)sc2n1,inactive: 88%
20,CC(C)(C)OC(=O)N1CCC(c2c(C(=O)NCCc3ccsc3)cnn2-c2ccccc2Cl)CC1,inactive: 77%
21,CCOc1ccc(N2C(=O)CS(=O)(=O)C23C(=O)N(Cc2cccc(Cl)c2)c2ccccc23)cc1 (stereo not drawn),inactive: 78%
22,O=C(NCCc1csc(-c2ccc(F)cc2)n1)c1ccco1,inactive: 87%

row,SMILES,survival
1,CC1=C(C(=O)Nc2cc(Cl)ccc2C)C2(CCCCC2)OC1=O,inactive: 78%
2,Cc1cc(C)cc(NC(=O)CCc2nnc3n(C)c(=O)c4sccc4n23)c1,inactive: 75%
3,Cc1cc(C)n2nc(CNC(=O)c3ccccc3Cl)nc2n1,inactive: 133%
4,CCC(=O)NC1CCN(C(=S)NC)CC1,inactive: 86%
5,Cc1cc(C)c(S(=O)(=O)NCC(=O)N2CCc3ccccc3C2)c(C)c1,inactive: 89%
6,Cn1c(=O)n(C)c2cc(N3CCOCC3)c(NC(=O)c3ccc(Cl)cc3)cc21,inactive: 87%
7,O=C(NCc1ccc2c(c1)CCN2C(=O)c1ccncc1)c1ccccc1Cl,inactive: 96%
8,O=C1C(=O)N(C2CCN(S(=O)(=O)c3ccccc3)CC2)CCN1Cc1ccccc1,inactive: 99%
9,Cc1nc2ccc(C(=O)O)cc2c2c1CC(C)S2 (stereo not drawn),inactive: 100%
10,COc1cccc(N2CCN(C(=O)C3CCCN(S(=O)(=O)c4ccc5c(c4)oc(=O)n5C)C3)CC2)c1 (stereo not drawn),inactive: 73%
11,COc1ccccc1CCNC(=O)C(=O)NCC(c1ccco1)S(=O)(=O)c1ccc(F)cc1 (stereo not drawn),inactive: 94%
12,Cn1c2ccccc2c2c(C(=O)N3CCN(c4cccc(Cl)c4)CC3)cn(C3CCCCC3)c(=O)c21,inactive: 81%
13,COc1ccc(OC)c(CCNC(=O)c2cc3cccc4c3n2CC(C)S4)c1 (stereo not drawn),inactive: 72%
14,Cn1c(=O)c2c(nc(CN3CCN(c4ccccc4F)CC3)n2Cc2ccccc2F)n(C)c1=O,inactive: 92%
15,COc1ccc(N2CC(NC(=O)COc3ccc(F)cc3)CC2=O)cc1OC (stereo not drawn),inactive: 98%
16,Cn1cnc2c(=O)oc3ccc(S(=O)(=O)N4CCN(c5cccc(C(F)(F)F)c5)CC4)cc3c21,inactive: 108%
17,CC(C)(C)OC(=O)N1CCC(c2c(C(=O)Nc3ccc4c(c3)OCCO4)cnn2-c2ccc(F)cc2F)CC1,inactive: 76%
18,CCOC(=O)CC(NC(=O)c1cc2cc(Br)cc(OC)c2oc1=O)c1ccc(OC)cc1 (stereo not drawn),inactive: 58%
19,CCOC(=O)C(=O)NCC(c1cccnc1)N1CCN(c2ccccc2)CC1 (stereo not drawn),active: 65%
20,CCOC(=O)c1ccc(NC(=O)CSc2ccc(-c3ccccn3)nn2)cc1,inactive: 63%
21,CCN(CC)c1cc(C)c2cc(NC(=O)c3ccccc3Cl)ccc2n1,inactive: 55%
22,Cc1ccc(-c2nc3c(c(SCC(=O)N(C)c4ccccc4)n2)Cc2c(CO)cnc(C)c2O3)cc1,inactive: 64%
